In article PMC5582858, “The yeast kinesin-5 Cin8 interacts with the microtubule in a noncanonical manner” (The Journal of Biological Chemistry, 2017):

Tests used:
[1] = target: T1, Cin8-trx (Cin8 motor domain, residues 70–535, fused to N-terminal thioredoxin (TrxA), His6, TEV cleavage and … (S. cerevisiae, UniProt P27895 70-535)); test: co-sedimentation; 2 μM kinesin, 0–4 μM paclitaxel-stabilised microtubules, no added nucleotide, high ionic strength (88 mM; ATPase buffer with 75 mM KCl), 298 K, 100,000 × g 30 min; supernatant and pellet by SDS-PAGE; apparent constants, fit to Equation 3; settings: both partners purified
T1 construct: Kinesin-5 Cin8, S. cerevisiae, motor domain, residues 70–535; Expected mass 67.3 kDa; source: E. coli B834(DE3) with pRILP, purified (SP-Sepharose, nickel-nitrilotriacetic acid, Sephadex G-25); not shown: thioredoxin (TrxA), N-terminal, kept; His6, N-terminal, kept; TEV cleavage tag, N-terminal, kept; Arg9, N-terminal, kept
T1 sequence (looked up): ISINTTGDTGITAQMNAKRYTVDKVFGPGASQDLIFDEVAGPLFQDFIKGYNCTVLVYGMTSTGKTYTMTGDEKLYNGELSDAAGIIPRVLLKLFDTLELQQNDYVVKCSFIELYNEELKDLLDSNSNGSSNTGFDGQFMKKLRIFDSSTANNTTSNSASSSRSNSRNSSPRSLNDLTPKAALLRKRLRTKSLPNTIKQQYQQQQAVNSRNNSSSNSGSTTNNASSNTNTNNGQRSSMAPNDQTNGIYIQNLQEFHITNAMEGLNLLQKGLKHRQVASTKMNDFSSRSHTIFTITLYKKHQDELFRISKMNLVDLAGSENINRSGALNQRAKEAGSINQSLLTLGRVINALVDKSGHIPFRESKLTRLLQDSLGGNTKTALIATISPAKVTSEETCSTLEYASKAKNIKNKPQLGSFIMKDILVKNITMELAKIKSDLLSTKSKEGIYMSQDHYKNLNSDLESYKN

[2] = target: T1, Cin8-trx (Cin8 motor domain, residues …); test: co-sedimentation; 2 μM kinesin, 0–4 μM paclitaxel-stabilised microtubules, no added nucleotide, low ionic strength (21 mM; ATPase buffer with 7.5 mM KCl), 298 K, 100,000 × g 30 min; supernatant and pellet by SDS-PAGE; apparent constants, fit to Equation 3; settings: both partners purified

B1: Subtilisin-treated microtubules (lacking the C-terminal tails of α- and β-tubulin) (complex)
chain 1: [in this place about 450 residues]
chain 2: MREIVHIQAGQCGNQIGAKFWEVISDEHGIDPTGSYHGDSDLQLERINVYYNEATGNKYVPRAILVDLEPGTMDSVRSGPFGQIFRPDNFVFGQSGAGNNWAKGHYTEGAELVDSVLDVVRKESESCDCLQGFQLTHSLGGGTGSGMGTLLISKIREEYPDRIMNTFSVMPSPKVSDTVVEPYNATLSVHQLVENTDETYCIDNEALYDICFRTLKLTTPTYGDLNHLVSATMSGVTTCLRFPGQLNADLRKLAVNMVPFPRLHFFMPGFAPLTSRGSQQYRALTVPELTQQMFDSKNMMAACDPRHGRYLTVAAIFRGRMSMKEVDEQMLNVQNKNSSYFVEWIPNNVKTAVCDIPPRGLKMSATFIGNSTAIQELFKRISEQFTAMFRRKAFLHWYTGEGMDEMEFTEAESNMNDLVSEYQQYQDATADEQ
modifications: Purified bovine brain tubulin is an isotype mixture; the representative isotypes alpha-1B and beta-2B are assumed, as the paper states none. Cleavage limits are not given; the conventional major …
[1]
  Kd: 80 ± 40 nM
[2]
  Kd: 70 ± 30 nM
